We go through 138 sequences from publication PMC5515408.

The list shows a part of the results. At the low end of the ranking the order means little.

In this assay the target is MAX:MAX (p21) (UniProt P61244-2). The assay is described as follows: protein-binding microarray (anti-MAX antibody). As to conditions: PBM: 15 mM Tris-HCl pH 7.5, 100 mM KCl, 0.075% NP40, 7.5 mM beta-mercaptoethanol, 375 ng/ul BSA, 8 ng/ul poly(dA-dT):(dA-dT), 550 ng complex, 60 min, room …; high values mean tight binding; double strand, one strand shown; sequences stand for … in CCGGC…TTAATAGCTAAGATTACTATATCGACG
Take TGAACATGCGTA: the binding signal (log2 normalized fluorescence) came to 2.73. TGAGATTAGGTA displayed a binding signal (log2 normalized fluorescence) of -1.1. Then TGATCTTTGGTA, with -1.44; and TAACACGCGGTA, with 3.35.

The sequence TGACGAATAGTA yielded a binding signal (log2 normalized fluorescence) of -0.763. With TGATAATTTGTA, the binding signal (log2 normalized fluorescence) was -1.46. The value for TGTGGCGTGGTA was 2.66; that for TAACAGGTGATA was 2.24; that for TGACTGGAAGTA was -0.308.

As for TGATCTTCGGTA, the binding signal (log2 normalized fluorescence) is -1.31.

The sequence TGAAATAGTGTA gave a binding signal (log2 normalized fluorescence) of -0.792. The value for TGAAACAATGTA was 0.429; that for TGACACGTGCGT was 3.25; that for TGACAGACCGTA was 0.179. The value for TGATCTCCAGTA was -0.862. With TGATAAGTCGTA, the binding signal (log2 normalized fluorescence) is -0.823. As to AATCACGTGGTA, the binding signal (log2 normalized fluorescence) worked out at 3.26. The sequence TGATTGGCGGTA yielded a binding signal (log2 normalized fluorescence) of -0.895. Then TGAGTCACGGTA, with 0.589. Regarding TGCTACGTGGTA, the binding signal (log2 normalized fluorescence) stood at 1.63. TTGCACGTGGTA registered a binding signal (log2 normalized fluorescence) of 3.31. Regarding TGAAAGCATGTA, the binding signal (log2 normalized fluorescence) came to 2.81. Then TGAAACTTCGTA, with -0.742; and TGACAAGTGGCA, with 1.13; and TGAGATGAGGTA, with -0.164. The value for TGAAAAAGGGTA was -0.51; that for TGAGGCCAAGTA was -1.07.

TGATCTAGTGTA had a binding signal (log2 normalized fluorescence) of -0.882.

GTGCACGTGGTA returned a binding signal (log2 normalized fluorescence) of 3.47. In the case of TGATGTTCAGTA, the binding signal (log2 normalized fluorescence) came out at 0.0777. The value for TGAGGGCCTGTA was -0.369. Then TGGCACAGGGTA, with 0.826; and TGATACAATGTA, with -0.525; and TGACGGCCGGTA, with -0.717. Take TGACAATTTGTA: the binding signal (log2 normalized fluorescence) was -0.713. On to TGAATTTTTGTA, for which the binding signal (log2 normalized fluorescence) is -1.32. TGACACTCAGTA returned a binding signal (log2 normalized fluorescence) of -0.0284. Turning to TGAAGATTGGTA, the binding signal (log2 normalized fluorescence) is -0.969. Then ACACACCTGGTA, with 3.07. Then TGATATTCGGTA, with -1.15; and TGAGCATTAGTA, with -0.394. Then TGATCTACTGTA, with -0.756; and TGAGTGTCTGTA, with 0.0693; and TGAGTATATGTA, with -1.16. In the case of TGAGAACCCGTA, the binding signal (log2 normalized fluorescence) was -0.628.

Take TGACTATCCGTA: the binding signal (log2 normalized fluorescence) was -0.802.

The sequence TGAGGAGCCGTA displayed a binding signal (log2 normalized fluorescence) of -0.812. TGAGTATCAGTA showed a binding signal (log2 normalized fluorescence) of -1.31. In turn, CAAATACAGAGC came in with a binding signal (log2 normalized fluorescence) of -0.628. Then TTGCACGTGGTT, with 3.23; and TGAGGTTCCGTA, with -0.799. Then TGACATCAGGTA, with 0.218; and TCACACGCGGTT, with 3.17. The value for TGATATGCTGTA was -0.468; that for TGAATGTGGGTA was 0.753. For the sequence TGAGGCCATGTA, the binding signal (log2 normalized fluorescence) is 0.0723. The value for TGAGAGTCCGTA was -1.15. TGACCGATAGTA returned a binding signal (log2 normalized fluorescence) of -0.854. TGATGCGTAGTA came in with a binding signal (log2 normalized fluorescence) of -0.342. The value for TGAAATGTAGTA was -0.762; that for TGACAGTGTGTA was 0.713; that for TGATACCCCGTA was -0.534. Then TGATTTAGAGTA, with -1.28; and TGAAAAAGTGTA, with -0.641; and TGAAACGTGGAC, with 2.91. Turning to TGATTAAGGGTA, the binding signal (log2 normalized fluorescence) is -0.832. Then TGACGGACTGTA, with -0.344.

The sequence TGACCACCAGTA registered a binding signal (log2 normalized fluorescence) of 0.44. For TGAAACCTCGTA, the binding signal (log2 normalized fluorescence) was 0.0071. The value for TGACAGAGGGTA was -0.449; that for TGAATTTGTGTA was -0.884; that for TGACACGCTTTA was 2.75.

On to CGACCCGTGGTA, for which the binding signal (log2 normalized fluorescence) came out at 2.57. With TGATTCATGGTA, the binding signal (log2 normalized fluorescence) is 0.201. Turning to TGAAATTTGGTA, the binding signal (log2 normalized fluorescence) is -1.22. Then TGACACAACGTA, with 0.41; and TGAGCCTGAGTA, with -0.659; and TGATTTTGAGTA, with -1.43. Then TGAATGTATGTA, with 0.22; and TGAGTTTATGTA, with -1.11. Sequence TGAGAAGTAGTA displayed a binding signal (log2 normalized fluorescence) of -0.94. For TGAGGGGAAGTA, the binding signal (log2 normalized fluorescence) is 0.0524. In turn, TGAATGTGCGTA registered a binding signal (log2 normalized fluorescence) of 1.47. Then TGAAGACCCGTA, with -0.489.

Consider TGACATGTGGCA, for which the binding signal (log2 normalized fluorescence) was found to be 3.15.

TGACCGGAGGTA had a binding signal (log2 normalized fluorescence) of -0.047. Then TGATATAACGTA, with -0.719; and TGAGAATGTGTA, with 0.399; and TGATGGGTAGTA, with -0.121. TGTCATGTAGTA registered a binding signal (log2 normalized fluorescence) of 0.762. The value for TGGCACGAGGTT was 3.28; that for TGAGCGCAAGTA was -0.162. The value for TGACACGTCTGA was 1.46. TGAGTAAACGTA yielded a binding signal (log2 normalized fluorescence) of -1.16. In turn, TGACACCGGGTA returned a binding signal (log2 normalized fluorescence) of 0.829. The value for TGAGACGTCGTA was -0.583. Turning to TGATTCGGTGTA, the binding signal (log2 normalized fluorescence) was -0.834. Sequence TGATCGCCCGTA registered a binding signal (log2 normalized fluorescence) of -0.637. Then TGACACGTGGTT, with 3.37; and TGATCCCCAGTA, with -0.709; and TGCATCGTGGTA, with 2.94. The value for CGACACGTGATA was 3.43; that for TGATAACGGGTA was -0.518; that for TGACTACATGTA was 0.58. For TGACTTGAGGTA, the binding signal (log2 normalized fluorescence) is 0.118. Then TGACACGTCTTA, with 1.31. The value for TGAGACTTCGTA was -1.18; that for TGACACGCGCTA was 3.07; that for TGACTCGCTGTA was 0.114. Then TGACTTCTCGTA, with -0.755; and GGACACGAGGTA, with 3.32.

Consider TGAGCTAAGGTA, for which the binding signal (log2 normalized fluorescence) is -1.18. Sequence TGAATACGCGTA showed a binding signal (log2 normalized fluorescence) of -0.433.

For the sequence TGATGGAACGTA, the binding signal (log2 normalized fluorescence) was -0.0356. Then TGAACACTGGTA, with -0.234; and TGACACCTCTTA, with 0.41.

Consider TGACCATGCGTA, for which the binding signal (log2 normalized fluorescence) was 2.79. Then TGAGGACAAGTA, with -0.473; and TGAGGCGAGGTA, with 0.294; and TGAATGTTTGTA, with 0.196. On to TGATCTGAGGTA, for which the binding signal (log2 normalized fluorescence) is -0.909. Then TGACCCGCCGTA, with -0.0413. Then GAACACGTAGTA, with 2.25; and TGAACAGAAGTA, with -0.726; and TGACCCTACGTA, with -0.247. The value for TGATATAAGGTA was -1; that for TGAAGGAAAGTA was -0.742; that for TGAACGCAAGTA was 0.234. TGACTCTGGGTA displayed a binding signal (log2 normalized fluorescence) of -1.04.

Turning to TGATAAGTGGGA, the binding signal (log2 normalized fluorescence) was -0.757.

The sequence TCACAAGTGGTA registered a binding signal (log2 normalized fluorescence) of 1.87. Then TCAGTCGTGGTA, with 1.1. The value for TGCCACGTCGCA was 2.16; that for TGAATACCGGTA was -0.896; that for TGACATTACGTA was 0.0225.

On to TGAAGACACGTA, for which the binding signal (log2 normalized fluorescence) was determined as 0.591. Consider TGACGCGCAGTA, for which the binding signal (log2 normalized fluorescence) is 0.0706. The value for TGACAGGAGGCA was 0.958.
